# Measurements from the supplement of paper PMC6531468.
# Some of the results follow. These are enrichments in a pooled selection; single values are uncertain. Scores sum up all selected molecules that hold the word; the word was not tested alone.
# Columns and labels:
# Assay in all cases: 6-mer SELEX enrichment z-score vs GST control; IMP3 is the RNA-binding protein IGF2BP3; higher = more enriched by binding
# [1] = test system: IMP3 KH1-4; conditions: construct: KH1-4 (164-579); SELEX round: R4
# Protocol: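 SELEX-seq with GST-tagged IMP3 KH1-4 (Pro164-Lys579) and an N40 RNA pool, round 4. 6-mer z-score of sequence-tag enrichment normalised to the corresponding GST SELEX round; RNA k-mers written as DNA (T for U).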
# [2] = test system: IMP3 RRM1-2; conditions: construct: RRM1-2 (1-163); SELEX round: R2
# Protocol: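 SELEX-seq with GST-tagged IMP3 RRM1-2 (Met1-Asn163) and an N40 RNA pool, round 2. 6-mer enrichment z-score normalised to GST SELEX. RNA written as DNA (T = U).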
# [3] = molecular target: IMP3 full-length (UniProt O00425); conditions: construct: FL IMP3 (1-579); SELEX round: R4
# Protocol: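 SELEX-seq with GST-tagged full-length IMP3 and an N40 RNA pool, round 4. Each 6-mer is scored as an enrichment z-score of sequence tags containing it, normalised to the matching GST SELEX round. RNA written as DNA (T = U).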
# [4] = test system: IMP3 KH1-2; conditions: construct: KH1-2 (164-376); SELEX round: R4
# Protocol: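 SELEX-seq with GST-tagged IMP3 KH1-2 (Pro164-Phe376) and an N40 RNA pool, round 4 (stringent 300/600 mM KCl washes). 6-mer z-score of sequence-tag enrichment normalised to the corresponding GST SELEX round; RNA k-mers written as DNA (T for U).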
# [5] = test system: IMP3 KH3-4; conditions: construct: KH3-4 (377-579); SELEX round: R4
# Protocol: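 SELEX-seq with GST-tagged IMP3 KH3-4 (Pro377-Lys579) and an N40 RNA pool, round 4. 6-mer z-score of sequence-tag enrichment normalised to the corresponding GST SELEX round; RNA k-mers written as DNA (T for U).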
# Chain of IMP3 KH1-4 (chain, as listed by the source): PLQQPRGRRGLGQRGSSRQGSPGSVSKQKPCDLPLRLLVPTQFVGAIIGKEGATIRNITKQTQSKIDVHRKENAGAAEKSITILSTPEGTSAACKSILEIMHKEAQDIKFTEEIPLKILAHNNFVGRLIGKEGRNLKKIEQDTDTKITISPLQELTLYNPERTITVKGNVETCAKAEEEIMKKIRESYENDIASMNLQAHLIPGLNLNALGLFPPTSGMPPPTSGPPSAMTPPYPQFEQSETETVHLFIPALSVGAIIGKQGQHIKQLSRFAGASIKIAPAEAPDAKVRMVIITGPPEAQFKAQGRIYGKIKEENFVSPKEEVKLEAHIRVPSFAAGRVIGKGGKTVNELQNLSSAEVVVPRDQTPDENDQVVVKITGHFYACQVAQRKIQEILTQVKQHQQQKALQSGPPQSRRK
# Chain of IMP3 KH1-2 (chain, as listed by the source): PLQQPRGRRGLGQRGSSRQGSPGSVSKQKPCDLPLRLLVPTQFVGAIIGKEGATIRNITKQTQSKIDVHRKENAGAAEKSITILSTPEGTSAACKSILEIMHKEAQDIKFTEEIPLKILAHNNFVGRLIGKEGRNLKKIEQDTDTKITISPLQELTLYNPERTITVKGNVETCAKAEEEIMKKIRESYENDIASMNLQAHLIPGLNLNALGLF
# Chain of UniProt O00425 (O00425 whole entry): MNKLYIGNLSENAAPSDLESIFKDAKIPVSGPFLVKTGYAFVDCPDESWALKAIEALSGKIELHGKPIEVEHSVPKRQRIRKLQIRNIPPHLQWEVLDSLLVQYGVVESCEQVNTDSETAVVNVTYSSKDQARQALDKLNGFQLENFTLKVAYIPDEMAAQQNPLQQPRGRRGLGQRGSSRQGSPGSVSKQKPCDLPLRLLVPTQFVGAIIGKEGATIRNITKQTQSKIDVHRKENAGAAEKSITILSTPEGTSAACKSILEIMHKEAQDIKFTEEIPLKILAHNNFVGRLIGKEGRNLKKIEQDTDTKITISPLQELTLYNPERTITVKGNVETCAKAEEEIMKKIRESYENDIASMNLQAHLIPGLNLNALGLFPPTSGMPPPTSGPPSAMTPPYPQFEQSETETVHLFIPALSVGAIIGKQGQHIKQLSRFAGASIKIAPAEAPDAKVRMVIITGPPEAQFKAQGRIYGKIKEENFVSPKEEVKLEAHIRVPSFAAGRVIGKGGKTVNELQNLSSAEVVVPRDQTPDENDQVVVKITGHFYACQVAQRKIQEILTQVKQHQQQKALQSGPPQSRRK
# Chain of IMP3 KH3-4 (chain, as listed by the source): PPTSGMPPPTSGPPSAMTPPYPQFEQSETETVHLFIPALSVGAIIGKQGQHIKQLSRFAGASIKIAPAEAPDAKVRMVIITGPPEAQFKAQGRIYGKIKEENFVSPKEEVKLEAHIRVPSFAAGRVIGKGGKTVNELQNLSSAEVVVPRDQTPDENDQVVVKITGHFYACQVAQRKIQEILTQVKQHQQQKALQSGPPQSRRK
# Chain of IMP3 RRM1-2 (chain, as listed by the source): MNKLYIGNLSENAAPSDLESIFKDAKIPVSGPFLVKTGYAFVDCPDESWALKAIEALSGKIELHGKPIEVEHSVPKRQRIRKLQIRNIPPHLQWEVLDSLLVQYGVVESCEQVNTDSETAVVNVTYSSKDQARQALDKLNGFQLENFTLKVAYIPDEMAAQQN
Sequence,6-mer SELEX enrichment z-score [1],6-mer SELEX enrichment z-score [2],6-mer SELEX enrichment z-score [3],6-mer SELEX enrichment z-score [4],6-mer SELEX enrichment z-score [5]
CGACGT,-1.76,-0.376,-0.927,-1.62,-1.54
CACGCG,-0.625,0.266,0.632,-0.54,-0.742
CCGCCA,0.622,-0.265,0.646,0.859,-0.314
TGGTAC,-0.512,0.491,0.138,-0.443,-0.439
TATTAC,1.19,0.157,0.199,1.26,1.49
TATTGT,0.768,0.332,0.138,0.525,0.898
TTGTAG,-0.062,0.232,-0.176,-0.085,0.149
GTCCAC,0.31,0.178,0.434,0.07,-0.385
AAGCGA,-1.82,-1.11,-1.26,-1.81,-1.57
CCATTG,0.249,0.165,0.148,0.058,-0.039
TACGAC,-0.022,-0.681,-0.409,-0.261,-0.673
GGCAAC,0.466,0.546,1.58,0.107,0.047
GGGGGC,1.85,0.191,0.962,2.75,1.93
TGAAGC,-0.516,-0.578,-0.545,-0.63,-0.465
ACCCGC,-1.63,-0.407,-0.962,-1.41,-2.02
CTCCAG,-0.6,-0.031,-0.227,-0.545,-0.749
AGGACC,-0.533,0.545,-0.419,-0.635,-0.834
TCATTC,1.34,1.94,1.77,1.32,0.923
CCTGGG,-0.804,-0.138,-0.388,-0.616,-0.743
TGAGCC,-1.46,-0.671,-0.856,-1.29,-1.41
CGCGGG,-0.206,0.038,0.547,0.145,-0.031
CGTGGG,-0.648,0.186,-0.2,-0.432,-0.438
GGACCC,-1,-0.524,-0.295,-0.976,-1.47
TGGCTT,0.189,0.518,0.251,0.213,0.437
GGCAAA,0.921,-0.128,1.08,0.426,1.4
ATACTG,0.824,-0.137,0.064,0.864,0.867
TTCACG,0.236,0.579,0.634,0.126,0.06
ATATTG,1.3,0.025,0.284,0.943,1.52

Sequence,6-mer SELEX enrichment z-score [1],6-mer SELEX enrichment z-score [2],6-mer SELEX enrichment z-score [3],6-mer SELEX enrichment z-score [4],6-mer SELEX enrichment z-score [5]
CTTGGG,-0.606,0.462,-0.067,-0.413,-0.328
CTGCCA,0.297,-0.153,0.005,0.369,-0.273
GTCGTT,-0.048,0.386,0.12,-0.039,0.088
AAAAAT,-0.098,-2.47,-2.26,0.126,1.75
CGTGTG,-0.265,-0.048,-0.295,-0.344,-0.262
GTCGTA,-0.447,0.108,-0.114,-0.369,-0.255
ACTGCC,-0.142,-0.421,-0.627,-0.076,-0.807
CCCAAC,-2.73,-0.818,-2.16,-2.48,-3.43
TTAGGA,0.566,0.093,0.097,0.342,0.753
ATTATC,0.828,0.403,0.255,0.799,0.892
TAGCTA,-0.269,0.02,-0.298,-0.204,-0.061
ACAAAA,-0.626,-0.75,-1.44,0.065,0.307
CTTTCT,0.696,0.388,0.243,0.728,0.555
TAACCC,-1.34,-1.15,-1.71,-1.38,-1.81
CTAACG,-0.829,-0.659,-0.952,-0.887,-0.873
TAGTTT,-0.177,0.487,-0.086,-0.111,0.119
CACTTC,0.929,1.31,0.78,1.01,0.119
GTCCCA,-0.87,-0.123,-0.281,-0.824,-1.14
ATTGTG,0.608,0.103,-0.026,0.298,0.647
ATGGAC,0.784,-0.496,0.067,0.311,0.394
CCCGCG,-1.81,-0.448,-0.583,-1.41,-1.8
TAGTGG,0.457,0.306,0.257,0.324,0.519
GTAATT,0.183,-0.024,-0.112,0.164,0.598
ACGCCA,0.195,-0.324,0.175,0.246,-0.439
TGATAC,0.263,-0.349,-0.153,0.147,0.212
AATAGA,1.31,-1.04,-0.081,1.38,2.28
GTCACA,0.334,0.756,1.14,0.088,-0.031
